Laboratory results as given in paper PMC6919601, “Identification of Plasmodium dipeptidyl aminopeptidase allosteric inhibitors by high throughput screening” (PLoS ONE, 2019).
Screen size: about 110,000 compounds; about 230 (0.21%) showed an effect of 50% or more. The list shows a part of the results.

Target: DPAP1 (Plasmodium falciparum, UniProt Q8IIJ9)
Test: primary screen, percent inhibition; read by cleavage of a fluorogenic dipeptide substrate; higher = more effect of the substance
Set-up: species or system P. falciparum D10 trophozoite lysates; single well
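Note: 30 min substrate incubation versus DMSO and 10 µM JCP410 controls.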

Chain of DPAP1 (Q8IIJ9 whole entry, looked up): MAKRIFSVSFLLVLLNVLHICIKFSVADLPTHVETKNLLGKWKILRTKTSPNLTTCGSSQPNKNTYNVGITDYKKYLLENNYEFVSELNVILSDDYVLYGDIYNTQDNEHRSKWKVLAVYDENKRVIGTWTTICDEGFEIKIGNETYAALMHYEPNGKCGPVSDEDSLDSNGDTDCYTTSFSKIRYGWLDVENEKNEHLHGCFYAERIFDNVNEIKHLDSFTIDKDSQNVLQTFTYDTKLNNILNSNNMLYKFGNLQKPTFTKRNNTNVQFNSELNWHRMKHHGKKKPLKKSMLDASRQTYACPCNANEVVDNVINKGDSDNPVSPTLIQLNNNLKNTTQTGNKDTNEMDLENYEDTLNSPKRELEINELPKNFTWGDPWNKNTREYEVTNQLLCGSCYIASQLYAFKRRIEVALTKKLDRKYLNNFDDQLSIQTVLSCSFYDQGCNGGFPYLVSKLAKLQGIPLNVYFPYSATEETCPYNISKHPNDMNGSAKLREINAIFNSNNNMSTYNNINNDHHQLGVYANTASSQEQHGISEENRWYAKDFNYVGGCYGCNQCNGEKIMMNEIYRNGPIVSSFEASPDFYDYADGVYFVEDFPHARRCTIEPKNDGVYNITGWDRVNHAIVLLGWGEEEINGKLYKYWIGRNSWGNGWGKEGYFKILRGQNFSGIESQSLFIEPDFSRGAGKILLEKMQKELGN

Row | Compound | % Inhibition @ 10 uM [%]
1 | Cc1cc(C)c2c(n1)SCC(=O)N2CC(=O)NCc1ccccn1 | -2.37
2 | C=CCn1c(-c2ccc(Br)cc2)nc2ccccc21 | -0.551
3 | C=CCNC(=O)c1ccccc1NC(=O)CSCc1cccc(Cl)c1 | 3.05
4 | O=C(Nc1ncc(Cc2ccccc2Cl)s1)c1cc2ccccc2c(=O)o1 | -3.33
5 | O/C(=C\c1nc2ccccc2nc1O)C(F)F | -2.47
6 | CC1=C(C(=O)Nc2ccccc2)C(c2cccs2)C(C#N)=C(SCc2ccc(Cl)cc2)N1 (stereo not shown) | 7.11
7 | Cc1cccc(CN2CCN(CC(=O)NC3CCCCCC3)C2=O)c1 | -4.2
8 | O=C(NC1CCCC1)c1ccc([N+](=O)[O-])cc1Cl | 1.83
9 | COc1cc2c(OC)cccc2cc1C(=O)O | 0.776
10 | CC(=O)C1=C(O)C(=O)N(CCc2c(C)[nH]c3ccccc23)C1c1cccc(F)c1 (stereo not shown) | -0.703
11 | CCSc1nnc(NC(=O)CSc2nnc3c4cc(Br)ccc4n(C)c3n2)s1 | -4.24
12 | CCO/C(O)=C1\C(C)=NC2=C(C(=O)c3ccccc32)C1c1ccc(C(F)(F)F)cc1 (stereo not shown) | -1.86
13 | COc1ccccc1CNc1nc2c(-c3cccc(F)c3)nnn2c2ccccc12 | 2.04
14 | Cc1ccc(C)c(S(=O)(=O)N2CC(=O)N(CCc3ccccc3)C(=O)C2)c1 | 1.88
15 | O=C(Nc1nc(-c2ccccc2)cs1)C1Cc2ccccc2CN1S(=O)(=O)c1cccs1 (stereo not shown) | -10.1
16 | CCC1CCc2nc(S)c(C#N)c(C(F)(F)F)c2C1 (stereo not shown) | 88.2
17 | COC(=O)c1cccc2c1NC(=O)C2=O | 2.76
18 | CCOc1ccc(/N=C2/S/C(=C\c3ccccc3O)C(=O)N2CC)cc1 | -1.61
19 | Cc1onc(-c2ccccc2)c1C(=O)NCCNC(=O)c1c(-c2ccccc2)noc1C | -8.14
20 | O=S(=O)(Nc1cc(Cl)c(Cl)cc1Cl)c1ccc(F)cc1 | 2.22
21 | O=C(/C=C/c1ccccc1)N1CCCC1 | 4.66
22 | CCCCc1ccc(NS(=O)(=O)c2cc(Cl)ccc2Cl)cc1 | -0.856

Row | Compound | % Inhibition @ 10 uM [%]
23 | Cc1ccc(CCNC(=O)Cn2nc(C)c3c(C)n(-c4ccccc4)nc3c2=O)cc1 | 4.65
24 | FC(F)(F)c1ccccc1CNc1ccc2c[nH]nc2c1 | -3.27
25 | CC(CN1CCN(C)CC1)OC(=O)c1ccccc1Br (stereo not shown) | -3.63
26 | CC1C/C(=C/c2cccn2C)C(=O)/C(=C/c2cccn2C)C1 (stereo not shown) | 0.287
27 | C=CCOc1ccc(C2CC(=O)OC3=C2C(=O)c2ccccc2C3=O)cc1 (stereo not shown) | -4.73
28 | CCN1CCC(N2CCCCCCC2)CC1 | 2.91
29 | Cc1cc(/C=C2\SC(Nc3ccc(F)cc3)=NC2=O)c(C)n1-c1ccncc1 | -1.38
30 | CC1(C)CC(=O)C2=C(C1)OC(N)=C(C#N)C21C(=O)N(Cc2ccccc2Cl)c2ccccc21 (stereo not shown) | -4.03
31 | Cc1cccc(CN2CCN(c3ccccc3F)CC2)c1 | -5.57
32 | CC(C)(C)n1ncc2c(=O)n(Cc3c(F)cccc3Cl)cnc21 | -1.75
33 | CCOc1ccc(-c2csc(/C(C#N)=C/c3ccc(Cl)cc3Cl)n2)cc1 | 1.92
34 | COc1ccc2[nH]c3c(=O)n(CC(=O)N(Cc4ccccc4)C(C)C)c(=S)[nH]c3c2c1 | 1.15
35 | Cc1ccc(OCC(O)CN2CCN(c3ccccc3)CC2)cc1C (stereo not shown) | 0.512
36 | COc1ccc(CN2CCN(S(=O)(=O)c3ccc(C)cc3)CC2)cc1 | 2.06
37 | O=S(=O)(NCc1ccc2c(c1)OCO2)c1ccc(-n2cnnn2)cc1 | 0.635
38 | O=C(O)c1ccc2c(c1)sc1nc(-c3ccc(Cl)cc3)cn12 | 1.72
39 | CCCN(CCC)C(=O)Cc1c(C)nc2c(-c3ccccc3)c(C)nn2c1C | 0.953
40 | CCCOc1ccc(C(CC(=O)O)NC(=O)c2ccc3c(c2)OCO3)cc1 (stereo not shown) | 1.03
41 | CCCOc1ccc(C(=O)Nc2ccc(N(CC)CC)cc2)cc1 | 3.35
42 | COc1ccc(C2NC(=O)c3ccccc3O2)cc1OC (stereo not shown) | -2.42
43 | FC(F)(F)c1cccc(-c2ccc(-c3nn4c(-c5ccco5)nnc4s3)o2)c1 | -9.48
44 | CCNc1nc(OCC(F)(F)F)nc(N(c2ccccc2)c2ccccc2)n1 | 2.62

Row | Compound | % Inhibition @ 10 uM [%]
45 | C/C(=C\c1ccccc1)CN1CCN(c2cccc(C(F)(F)F)c2)CC1 | 0.0792
46 | COC(=O)c1ccc(C2CC(=O)NC3=C2C(=O)CC(c2cc(OC)ccc2OC)C3)cc1 (stereo not shown) | -3.51
47 | O=C(NC1CCCCCC1)C1CCN(S(=O)(=O)N2CCC3(CC2)OCCO3)CC1 | 2.18
48 | Cc1ccccc1Oc1cc(-n2ncc3c2CCCC3=O)ncn1 | 3.58
49 | COc1ccc(CN2CCC(O)CC2)cc1C | 7.72
50 | Cc1ccc(-c2noc(CCC(=O)NCCN3CCc4ccccc4C3)n2)cc1 | 3.51
51 | COc1ccc(OC)c(CCNC(=O)NCc2noc3ccccc23)c1 | 0.568
52 | CC(C)Cc1nn2cc(-c3ccccc3)nc2s1 | -0.946
53 | Cc1ccc(S(=O)(=O)NC(C)C(=O)NCCC2=CCCCC2)cc1 (stereo not shown) | 5.97
54 | O=C(Cc1ccc(Cl)cc1)Nc1cc(Cl)ccn1 | 4.83
55 | Cc1cc2oc(=O)cc(C)c2c2c3c([nH]c12)CCCC3 | 5.55
56 | O=C(c1cc2nc(-c3ccco3)cc(C(F)(F)Cl)n2n1)N1CCCCCC1 | 1.27
57 | Cc1ccc(C)n1CCN1CCN(C(=O)C(C)(C)C)CC1 | -5.2
58 | CSc1ccc(CCNC(=O)NCc2noc3ccc(C)cc23)cc1 | -2.26
59 | Cc1cccc(OCCCCCCN2CCCC2)c1 | 4.33
60 | CC1CCN(S(=O)(=O)N2CCC(C(=O)O)CC2)CC1 | -1.99
61 | CCOC(=O)c1oc2ccc(S(=O)(=O)n3nc(-c4ccc(Cl)cc4)cc3N)cc2c1C | -2.19
62 | O=C(CCCCCN1C(=O)c2ccccc2C1=O)Nc1cccc(O)c1 | -5.38
63 | Cc1cc2ncn(CCCOc3ccc(Cl)cc3)c2cc1C | -5.92
64 | O=C(O)c1cc(C(=O)O)cc(N2C(=O)C3C4CCC(C4)C3C2=O)c1 (stereo not shown) | 3.86
